Source: the supplement of paper PMC11417369
The list shows a part of the results.

The sequences below were run on PfHDP1 homeodomain (GST-tagged) (assay: gcPBM binding intensity (ln(normalized median fluorescence intensity)); higher = stronger DNA binding).
Summary of the method: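 DNA-binding domains from P. falciparum, fused to GST and produced in E. coli, were put on an Agilent 4 × 180k double-stranded probe array for 1 h in 1× PBS holding 1% milk, 0.2 mg/ml BSA, 0.5% salmon testes DNA and 0.03% Triton X-100. Probes were primer-extended, 36 bp long and drawn from intergenic genomic regions, with negative controls included. After Alexa488 anti-GST antibody detection and a 488 nm scan, binding intensity was set as the highest Masliner-normalised natural-log median intensity across replicate spots of either probe orientation.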

Sequence	gcPBM binding intensity (ln)
AATAAATTAAAACAGGTGCACTATATTACACACGCT	9.7
TTATGGAGAGTTATATGTACGAAAAATATGTATAAG [XGTACX_site515]	6.7
AGAATTATTGTTAATGCATGTGGAAGTTAAAATATT [TGCATGCA_site188]	6.86
CAATATAAAAAACACACACACAAACATATATTTATA [CACACA_site3703]	6.93
TGTCGGCTTAGATTAGTGCACTGAAAAATGAAGTAT [GTGCAC_site9919]	10.2
TATTTATATAAAAATACACACATGAATGGATATATA [CACACA_site6335]	6.4
CACCAATTCCTATGCACACACATCTGCATATTATAT [CACACA_site5049]	9.86
TTATTTACATCAAGTACATGCAGTAAAAAAAAAAAA [TGCATGCA_site351]	6.41
ACAAAACGAACATACGCATGTGTGTACATTAATATA [TGCATGCA_site922]	7.03
ATGAACAGTTCATGTTGTACAATCTCCATTTTTTAC [XGTACX_site3933]	6.79
ATATAATATATGTATACACACATATTATATAATATT [CACACA_site3699]	6.46
ATTAATTAAGGCACATGTACAAAATATTTTTTATAA [XGTACX_site1964]	7.12
TATACAATCTATATAACACACATATTTATATAAAAT [CACACA_site1797]	6.65
GTAACATACACATATACACACACACCGATATACATA [CACACA_site8278]	7.21
AATATAGTTCAATATACACACCCCTTTATTCATTTT [CACACA_site3625]	6.57
TATATATATATATATGCATGTACATATATTTGTTAT [TGCATGCA_site379]	9.2
TTTTTTTTTTTTTTTTGTACTTAAAAATTTATATAA [XGTACX_site7718]	6.34
ATTTAACTAAAGAAGGCACACGTGTTTAAAAAAAAA [CACACA_site5241]	6.49
CATTTATATATATACACACACACAAAAAAAAAAAAA [CACACA_site2645]	6.52
AATATTATATTTTATTGTACTAATAAAAATATATGC [XGTACX_site5435]	6.43
GACGTTATGATACACATACACACAGGGATAAAAAAT [CACACA_site2882]	6.81
TATACACATTTTTATACACACTTGTTTTATAAAACG [CACACA_site6480]	6.91

Sequence	gcPBM binding intensity (ln)
ATAATATGAAATATAACACACATATATAAAAACATT [CACACA_site866]	6.69
TATTTTTTTTTTGGGTGTACCTTTTATATATATTGT [XGTACX_site5036]	6.74
TTATCTTACATAAATTATAACAATAATATGTGTATA [XGTACX_negctrl_site379]	6.03
TGTATATATTATAAAAGTACATAATATTCTTAGATA [XGTACX_site5623]	6.19
CATTTCGAAAAAAAATGTACTTATTATATTTATATA [XGTACX_site6752]	6.04
AGCATTAAAAATGGAATGGAATTAAGCTATATATTA [CACACA_negctrl_site1571]	6.18
GAAACTTCAAGAAATGCACACAATAAAATAAATAAA [CACACA_site1549]	9.4
ATAGAATATTATATTACACACAGAATAATAAAAAAT [CACACA_site86]	6.38
AGTATATATTATATATATATATATATATTATATATG [TGCATGCA_negctrl_site99]	6.59
ACATCTCTTATATATTCACACACATATATATAATTA [CACACA_site8424]	7.05
GCACATCTATATGAAACACACATGGAAACATCTCTT [CACACA_site7793]	6.53
TTTTTTTTTTAATTCGCACACTGTCTTCATGCAATT [CACACA_site4882]	7.23
TTAAAAAATTTTTAAGCACACACATAGATAATATAT [CACACA_site8440]	7.07
ATGGGACATATATATACACACATATATATATATATA [CACACA_site1202]	9.32
TTTAATCATATGTTATATAATAAGCCCCCCCCCCAA [CACACA_negctrl_site486]	9.33
AAAAAAATTAAACATGAAGAATAAGGAACAAAAAAA [CACACA_negctrl_site1607]	6.84
ATTTAAGTAGTACATACACACACATATACAAAAAGA [CACACA_site9317]	7.29
TTTTGTCTTATATGTTGTACAACGTAAACAAAAAAA [XGTACX_site4412]	6.47
AAAAGAATATATAATTGTACTTAAAATATAATTAAG [XGTACX_site4484]	6.15
TTTCGATTAAAAATTGTACAATATAAGGAGCACACA [GTGCAC_negctrl_site476]	7.92
ACTGTAACAATCATGGGTACAAATAAAATAATATCT [XGTACX_site99]	6.45
ATGAAAATTATAAAGTGTACATATAGAAACATTTAC [XGTACX_site8047]	6.38

Sequence	gcPBM binding intensity (ln)
CTTTTTTTGACCTTAGTGCAAATAACTATATATTAT	9.48
AACCACAGACATATAACACACATATACAATATATAT [CACACA_site5142]	6.74
TAAAAAAAAAAATGAACATGCAACAATTGTGATGAA [TGCATGCA_site332]	6.94
TAAATATATTTATAAGCACACACTAATAAACCAACA [CACACA_site8022]	7.05
TTATGCAATTTGTATTGTACATTCATGATATTAATA [XGTACX_site5070]	7.05
AATGTGTACGCACGCACACACAAAAAAATATATATA [CACACA_site2913]	7.86
ATCTATATCTATAATACACACATAAATGGATATATA [CACACA_site6284]	6.6
CAAGCCCTTCTGCTTACACACAGTAATTATTGTGCA [CACACA_site7399]	6.34
TATATATAGAAACACACACACACACCCAAGCGTAGC [CACACA_site63]	7.03
ATTATAACTAAATAAATGATATATAATATTTTATTT [XGTACX_negctrl_site234]	5.89
TAATAAATCAATAAATGTACATATATGTATAATTTC [XGTACX_site980]	6.47
AATTATAAAAAAAAAAAAAAAAAAAAAAACTAAATG [CACACA_negctrl_site1379]	6.04
ATAATGTATTTATATATATATATATATTTTAATAAA [CACACA_negctrl_site460]	6.43
TTTAAAAATATATTCACACAGAAATAGTAAAAGTTA [CACACA_site4587]	6.55
ATATATTTATATATTTGTACATATAATATCTTCTTT [XGTACX_site8504]	6.09
ATTTATTAATTACCATGTATAAAAAATTATATAATA [CACACA_negctrl_site581]	6.25
GTCGTATAATTTTCAGTGCAATATTTGAATAAATGG [GTGCAC_site9404]	8.97
AGCAACTCAATATATATAAGAATTGTAATATAATAT [GTGCAC_negctrl_site429]	6.44
ATACAATACAAAAACACACACAAAAAAAGAAAAGGA [CACACA_site2156]	7.32
AATACCCATATCTTCACACATACATAATAAATTATA [CACACA_site5367]	6.78
TTTATTTATGTGTGGGTGCATATACGTATGATGTAT	9.12
TTTGAATATTCATATGCACACAAATTAATATACATA [CACACA_site8040]	9.99

Sequence	gcPBM binding intensity (ln)
GATTTATACAAATATGTACACACTAAATATATATTA [CACACA_site455]	6.86
TTTATTTTATTTTCATGTACAAAAGGGGAATAATAA [XGTACX_site2704]	6.67
ATATGTATGTATTTATTATTGTGCATTGTATTTATA [CACACA_negctrl_site664]	10.3
TATTTATCTTTACGCACACACTTGCATGTACAAAAG [CACACA_site4753]	8.41
AAAATAATTCATGTTGGTAATAAGACTCGAGGTGAA [CACACA_negctrl_site1054]	6.77
TTTATTTTAAATGGGTGTACTCATTCCTTATGGAAG [XGTACX_site1397]	6.27
TAATAGATGTTATGAAGTACTAAATATTAAATATAA [XGTACX_site5717]	6.46
GTATAATATTTTAATGCACACACACTAATAAAAAAA [CACACA_site8939]	10.4
TTTGGATAAAAAATATGTACACACATATAGATATCT [XGTACX_site5660]	6.17
TTGACAGGAACGTTGGTGCACGTACTGTTTTTCTTT [GTGCAC_site9389]	9.26
AAGTATAAATAAAGGCGTACACATGTAAATTATATT [XGTACX_site126]	6.79
AAAAAAAAAAAATACACACACATATTTATTTATATA [CACACA_site7114]	6.47
AAAAAAGGTAAAAAAAGTACAAAAAAAAAATTAAAA [XGTACX_site6993]	6.18
AGTAGTCTGGAGAAAAGTACATAGTATCTGATAACC [XGTACX_site2028]	6.61
TGCTTATATATAAATTGTACTGAAAGAATAAAATAA [XGTACX_site4025]	6.52
AAAAAGATAAAATATACATGCATATATAATATACAT [TGCATGCA_site488]	6.39
ACGTATTTTTAAATATATGAATTATGTAACTTGTGA [CACACA_negctrl_site1446]	6.16
GAATATGTGATATTTTGTACATAAAAATAATATATA [XGTACX_site6398]	6.49
TATACTATTTAAATGTGTACTAAAAGAATATATTAT [XGTACX_site5238]	6.61
CTATATGTTAAATTCTCACACATTATTACAATTTAA [CACACA_site5979]	6.78
TGTTCATTTTTAAAATGTACATATATGTTGTTCCAT [XGTACX_site8444]	6.77
CATATGTATATGACTACACACAAGGGTGTACCTATA [CACACA_site6670]	6.34
